We go through 75 compounds from the supplement of paper PMC7580552.

Where a name gives a salt, the structure may show the parent alone. The list shows a part of the results. Most values come without repeats; read them as rough.
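Note: stationary (unshaken) cultures in 96-well plates, started at OD600 0.05 from mid-exponential cells, with compounds supplied from DMSO stocks.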

The experiment relates to Escherichia coli W3110. Briefly: planktonic growth (OD600) relative to untreated control; higher = more growth. Particulars: 10 µM; 20-24 h; 30 °C; TB.
Take `CC(=O)OCC(=O)[C@@]12OC(C)(C)O[C@@H]1C[C@H]1[C@@H]3C[C@H](F)C4=CC(=O)C=C[C@]4(C)[C@@]3(F)[C@@H](O)C[C@@]12C` [Fluocinonide]: the planktonic growth came to 91%.
For `c1ccc2c(CC3=NCCN3)cccc2c1` [Naphazoline hydrochloride] the value was 100%.
The compound `CCN(CC)CC(=O)Nc1c(C)cccc1C` [Lidocaine hydrochloride] registered a planktonic growth of 110%.
Compound `CCCCc1oc2ccc(NS(C)(=O)=O)cc2c1C(=O)c1ccc(OCCCN(CCCC)CCCC)cc1` [Dronedarone hydrochloride] displayed a planktonic growth of 103%.
For `CCC1(c2ccccc2)C(=O)NCNC1=O` [Primidone] the value was 94%.
With `CC(=O)OC[C@H]1O[C@@H]([S-])[C@H](OC(C)=O)[C@@H](OC(C)=O)[C@@H]1OC(C)=O.CCP(CC)CC.[Au+]` [Auranofin] the figure was 62%; with `CN(C)CCC(c1ccc(Br)cc1)c1ccccn1` (stereo not given) [Brompheniramine maleate], 92%.
In turn, `O=C1CC[C@@H](C(=O)N2CSC[C@H]2C(=O)O)N1` [Pidotimod] displayed a planktonic growth of 97%.
For `c1ccc(-c2ccc(C(c3ccccc3)n3ccnc3)cc2)cc1` (stereo not given) [Bifonazole] the value was 100%; for `Oc1c(Cl)cc(Cl)c2cccnc12` [Chloroxine], 9%.
The compound `CCOc1nc2cccc(C(=O)O)c2n1Cc1ccc(-c2ccccc2-c2nnn[nH]2)cc1` [Candesartan] displayed a planktonic growth of 99%.
With `C[C@@](Cc1ccc(O)c(O)c1)(NN)C(=O)O` [Carbidopa] the figure was 95%; with `Nc1ncnc2c1ncn2[C@@H]1O[C@H](CO)[C@@H](O)[C@@H]1O` [Vidarabine], 104%.
For `CC(=O)N(CC(O)CO)c1c(I)c(C(=O)NCC(O)CO)c(I)c(C(=O)NCC(O)CO)c1I` (stereo not given) [Iohexol] the value was 95%; for `CN(CCCCCCCCCCN(C)C(=O)Oc1cccc([N+](C)(C)C)c1)C(=O)Oc1cccc([N+](C)(C)C)c1` [Demecarium bromide], 94%.
With `COC(=O)Nc1nc2cc(Sc3ccccc3)ccc2[nH]1` [Fenbendazole] the figure was 114%.
As to `CN1CCN(CC(=O)N2c3ccccc3C(=O)Nc3cccnc32)CC1` [Pirenzepine dihydrochloride], the planktonic growth is 100%.
For `Cn1c(=O)c2c(ncn2CC2OCCO2)n(C)c1=O` [Doxofylline] the value was 98%.
For `Nc1nc2c(ncn2COC(CO)CO)c(=O)[nH]1` [Ganciclovir] the value was 99%; for `CC=CC(=O)N(CC)c1ccccc1C` [Crotamiton], 106%; for `CNCCc1ccccn1` [Betahistine mesylate], 90%.
For `NCCCCCC(=O)O` [Aminocaproic acid] the value was 105%.
`CN(C)C(=N)NC(=N)N` [Metformin hydrochloride] came in with a planktonic growth of 104%.
With `CC(=O)O[C@]1(C(C)=O)CC[C@H]2[C@@H]3C=C(Cl)C4=CC(=O)CC[C@]4(C)[C@H]3CC[C@@]21C` [Chlormadinone acetate] the figure was 94%; with `CCN(CC)C(C)CN1c2ccccc2Sc2ccccc21` (stereo not given) [Ethopropazine hydrochloride], 104%.
With `CCCNC(=O)NS(=O)(=O)c1ccc(Cl)cc1` [Chlorpropamide] the figure was 98%; with `Cc1cc(O)c(C(=O)N[C@@H](C(=O)N[C@@H]2C(=O)N3C(C(=O)O)=C(CSc4nnnn4C)CS[C@H]23)c2ccc(O)cc2)cn1` [Cefpiramide], 18%; with `CO[C@H]1/C=C/O[C@@]2(C)Oc3c(C)c(O)c4c(O)c(c5c(nc6cc(C)ccn65)c4c3C2=O)NC(=O)/C(C)=C\C=C\[C@H](C)[C@H](O)[C@@H](C)[C@@H](O)[C@@H](C)[C@H](OC(C)=O)[C@@H]1C` [Rifaximin], 56%.
For `O=C1[C@H]2CCCC[C@H]2C(=O)N1CCCCN1CCN(c2nsc3ccccc23)CC1` [Perospirone] the value was 99%; for `Clc1cccc(Cl)c1NC1=NCCN1` [Clonidine hydrochloride], 100%; for `CCCOc1ccc2[nH]c(NC(=O)OC)nc2c1` [Oxibendazol], 105%.
As for `Cc1[nH]cnc1CN1CCc2c(c3ccccc3n2C)C1=O` [Alosetron hydrochloride], the planktonic growth came out at 95%.
In turn, `O=C1NCC2(CCN(CCc3ccccc3)CC2)O1` [Fenspiride hydrochloride] registered a planktonic growth of 89%.
With `Clc1ccc2c(c1)CCc1cccnc1C2=C1CCNCC1` [Desloratadine] the figure was 100%; with `CN(C)CCOC(c1ccccc1)c1ccccc1.Cn1c(=O)c2[nH]c(Cl)nc2n(C)c1=O` [Dimenhydrinate], 93%; with `CN(CCCN1c2ccccc2CCc2ccccc21)CC(=O)c1ccc(Cl)cc1` [Lofepramine], 98%.
For `CCN(CC)C(=O)c1ccc(O)c(OC)c1` [Ethamivan] the value was 95%; for `O=C(c1ccc(F)cc1)C1CCN(CCn2c(=O)[nH]c3ccccc3c2=O)CC1` [Ketanserin tartrate hydrate], 99%; for `CC(C(O)c1ccc(O)cc1)N1CCC(Cc2ccccc2)CC1` (stereo not given) [Ifenprodil tartrate], 106%.
Consider `COC(=O)N/N=C/c1c[n+]([O-])c2ccccc2[n+]1[O-]` [Carbadox], for which the planktonic growth turned out to be 75%.
For `CN(C(=O)CN(CCO)CC(=O)N(C)C(C)(C)Cc1ccccc1)C(C)(C)Cc1ccccc1` [Oxethazaine] the value was 100%; for `Cc1cc(C)nc(NS(=O)(=O)c2ccc(N)cc2)n1` [Sulfamethazine sodium salt], 64%.
With `CC1(C)O[C@@H]2C[C@H]3[C@@H]4C[C@H](F)C5=CC(=O)C=C[C@]5(C)[C@@]4(F)[C@@H](O)C[C@]3(C)[C@]2(C(=O)CO)O1` [Fluocinolone acetonide], the planktonic growth worked out at 98%.
With `COc1cc(NS(=O)(=O)c2ccc(N)cc2)ncn1` [Sulfamonomethoxine] the figure was 64%; with `CC(C)[C@H](N)C(=O)OCCOCn1cnc2c(=O)nc(N)[nH]c21` [Valacyclovir hydrochloride], 97%; with `CN1CCN2c3ncccc3Cc3ccccc3C2C1` (stereo not given) [Mirtazapine], 88%.
For `CCCOc1ccccc1-c1nc2[nH]nnc2c(=O)[nH]1` [Zaprinast] the value was 89%.
Compound `CCCCCCNC(=O)n1cc(F)c(=O)[nH]c1=O` [Carmofur] showed a planktonic growth of 80%.
Compound `CC#C[C@]1(O)CC[C@H]2[C@@H]3CCC4=CC(=O)CCC4=C3[C@@H](c3ccc(N(C)C)cc3)C[C@@]21C` [Mifepristone] returned a planktonic growth of 94%.
With `Nc1nc(=O)n([C@@H]2CS[C@H](CO)O2)cc1F` [(-)-Emtricitabine] the figure was 94%; with `COc1ccc(Cl)cc1C(=O)NCCc1ccc(S(=O)(=O)NC(=O)NC2CCCCC2)cc1` [Glibenclamide], 101%.
For `CCN(CC)CCOCCOC(=O)C1(c2ccccc2)CCCC1` [Carbetapentane citrate] the value was 91%.
With `CCN(CC)C(=O)C1(c2ccccc2)CC1CN` (stereo not given) [Milnacipran hydrochloride] the figure was 98%; with `Cc1cc(C(C)(C)C)cc(C)c1CC1=NCCN1` [Xylometazoline hydrochloride], 94%; with `CCN(CCCCOC(=O)c1ccc(OC)c(OC)c1)C(C)Cc1ccc(OC)cc1` (stereo not given) [Mebeverine hydrochloride], 94%.
In turn, `O=P(O)(O)C(O)(Cn1ccnc1)P(=O)(O)O` [Zoledronic acid hydrate] yielded a planktonic growth of 103%.
In the case of `COc1cc2nc(N3CCN(C(=O)C4COc5ccccc5O4)CC3)nc(N)c2cc1OC` (stereo not given) [Doxazosin mesylate], the planktonic growth was 92%.
For `CCN(CC)C(=O)Nc1ccc(OCC(O)CNC(C)(C)C)c(C(C)=O)c1` (stereo not given) [Celiprolol hydrochloride] the value was 95%.
With `N[C@H]1CONC1=O` [(S)-(-)-Cycloserine] the figure was 97%; with `CCCCC1C(=O)N(c2ccccc2)N(c2ccc(O)cc2)C1=O` (stereo not given) [Oxyphenbutazone], 102%.
For `CCOC(=O)/C=C(C)/C=C/C=C(C)/C=C/c1c(C)cc(OC)c(C)c1C` [Etretinate] the value was 99%.
As to `NC[C@H]1O[C@H](O[C@H]2[C@H](O)[C@@H](O[C@H]3O[C@H](CO)[C@@H](O)[C@H](N)[C@H]3O)[C@H](N)C[C@@H]2N)[C@H](N)C[C@@H]1O` [Tobramycin], the planktonic growth came to 21%.
With `C=CCOc1ccccc1OCC(O)CNC(C)C` (stereo not given) [Oxprenolol hydrochloride] the figure was 92%; with `Cc1c(N)c(=O)n(-c2ccccc2)n1C` [Ampyrone], 99%; with `CN[C@H]1CC[C@@H](c2ccc(Cl)c(Cl)c2)c2ccccc21` [Sertraline], 87%.
`C[C@@H]1CCC[C@H](C)N1NC(=O)c1ccc(Cl)c(S(N)(=O)=O)c1` [Clopamide] showed a planktonic growth of 99%.
With `CC[C@H]1OC(=O)[C@H](C)[C@@H](O[C@H]2C[C@@](C)(OC)[C@@H](O)[C@H](C)O2)[C@H](C)[C@@H](O[C@@H]2O[C@H](C)C[C@H](N(C)C)[C@H]2O)[C@](C)(O)C[C@@H](C)CN(C)[C@H](C)[C@@H](O)[C@]1(C)O` [Azithromycin] the figure was 23%; with `Cc1ccc(-c2cc(C(F)(F)F)nn2-c2ccc(S(N)(=O)=O)cc2)cc1` [Celecoxib], 97%; with `CC(CNC1CCCCC1)OC(=O)c1ccccc1` (stereo not given) [Hexylcaine hydrochloride], 91%.
For `Nc1ccc(S(=O)(=O)Nc2nccs2)cc1` [Sulfathiazole] the value was 54%.
With `CNCC(O)c1ccc(O)c(O)c1` (stereo not given) [Racepinephrine hydrochloride] the figure was 91%.
Consider `CCOC1O[C@H]([C@@H](COCc2ccccc2)OCc2ccccc2)[C@H](OCc2ccccc2)[C@H]1O` (stereo not given in full) [Tribenoside], for which the planktonic growth stood at 98%.
For `CC(=O)Nc1c(I)c(C(=O)N[C@H]2C(O)O[C@H](CO)[C@@H](O)[C@@H]2O)c(I)c(N(C)C(C)=O)c1I` (stereo not given in full) [Metrizamide] the value was 90%; for `CCN(CC)CCNC(=O)c1ccc(N)cc1` [Procainamide hydrochloride], 92%.
With `CCCCOc1cc(C(=O)OCCN(CC)CC)ccc1N` [Benoxinate hydrochloride] the figure was 94%.
